Test results: PMC4336329 (PLoS ONE, 2015)
In all, about 310,000 compounds went through this assay and about 14,000 (4.5%) showed an effect of 50% or more. The effect is printed as a negative number. This is one part of the list. *1 amine or outer side, *2 acyl side, *3 side chain or, on linkers, in order; H or OH if unused. Where a SMILES comes first, the peptide text is derived from it. Bridges are numbered along the chain shown (N, C = ends). [ ]: non-standard residue; d: D form. ξ: configuration not given here. hSer(Ph(2-I,4-NO2,6-CO)) = O=C([C@H](CCOc1c(I)cc([N+](=O)[O-])cc1C(=O)[*:3])N[*:1])[*:2]; ξD = NC(CC(=O)O)C(=O)O

Molecular target: human ether-à-go-go-related gene (hERG) potassium channel (human, UniProt Q12809)
Test: primary screen, population patch clamp on CHO cells stably expressing hERG
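Note: peak tail current of the secondary pulse compared with the same well before compound.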

human ether-à-go-go-related gene (hERG) potassium channel, sequence (Q12809 whole entry, looked up): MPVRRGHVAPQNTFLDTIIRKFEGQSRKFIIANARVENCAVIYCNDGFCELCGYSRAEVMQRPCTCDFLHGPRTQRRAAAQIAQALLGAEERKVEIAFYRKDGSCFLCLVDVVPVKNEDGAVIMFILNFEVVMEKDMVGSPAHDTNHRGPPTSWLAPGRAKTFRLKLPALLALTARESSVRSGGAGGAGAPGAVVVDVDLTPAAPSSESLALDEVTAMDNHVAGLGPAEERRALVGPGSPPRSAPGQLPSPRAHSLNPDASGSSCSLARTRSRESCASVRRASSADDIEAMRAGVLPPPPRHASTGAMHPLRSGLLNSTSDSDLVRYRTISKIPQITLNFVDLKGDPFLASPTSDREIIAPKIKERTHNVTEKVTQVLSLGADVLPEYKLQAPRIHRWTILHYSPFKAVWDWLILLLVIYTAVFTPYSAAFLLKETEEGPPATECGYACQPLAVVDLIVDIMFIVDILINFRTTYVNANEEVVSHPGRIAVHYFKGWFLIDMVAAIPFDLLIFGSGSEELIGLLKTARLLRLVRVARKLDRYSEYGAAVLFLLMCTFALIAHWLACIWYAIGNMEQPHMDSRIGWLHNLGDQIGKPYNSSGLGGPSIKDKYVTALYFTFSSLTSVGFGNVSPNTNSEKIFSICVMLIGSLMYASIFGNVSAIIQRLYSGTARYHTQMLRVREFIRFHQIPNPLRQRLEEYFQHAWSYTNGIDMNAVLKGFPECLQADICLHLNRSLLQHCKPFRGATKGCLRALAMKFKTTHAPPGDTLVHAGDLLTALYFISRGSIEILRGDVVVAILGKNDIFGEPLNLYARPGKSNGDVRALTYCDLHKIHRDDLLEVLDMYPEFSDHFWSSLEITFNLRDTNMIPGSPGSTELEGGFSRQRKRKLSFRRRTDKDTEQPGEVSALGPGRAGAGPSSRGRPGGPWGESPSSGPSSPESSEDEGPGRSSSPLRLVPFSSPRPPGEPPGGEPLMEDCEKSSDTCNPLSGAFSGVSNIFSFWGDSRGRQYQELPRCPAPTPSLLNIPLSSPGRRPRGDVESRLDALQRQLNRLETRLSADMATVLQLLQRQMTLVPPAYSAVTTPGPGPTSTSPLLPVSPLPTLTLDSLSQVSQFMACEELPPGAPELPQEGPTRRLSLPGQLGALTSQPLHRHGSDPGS

In order of rising “hERG current change (%, negative = inhibition) at 10uM” value:
1. COc1ccc(CCn2c(=N)c(C(=O)N3CCN(C)CC3)cc3c(=O)n4ccccc4nc32)cc1  -76.2%
2. Cc1ccc(CN2C3=NCCN3c3ccccc32)cc1.Cl  -68.3%
3. O=C(c1ccco1)N(Cc1cccc(Cl)c1)C1CCS(=O)(=O)C1 (centres unmarked)  -59%
4. Cc1ccc(S(=O)(=O)NCC(=O)N(CC2CCCO2)C(C(=O)NC2CCCCC2)C(C)C)cc1 (centres unmarked)  -52.7%
5. COc1cccc2cc(/C(C)=N/NC(=O)c3ccco3)oc12  -52.2%
6. Cc1cc(F)ccc1NC(=O)CCc1ccc(S(=O)(=O)N2CCOCC2)cc1  -29.5%
7. CCc1nc2oc3ccccc3c(=O)c2c(=O)n1-c1ccccc1  -24.4%
8. Cc1c(Cl)cccc1NC(=S)NC1CCN(Cc2ccccc2)CC1  -24.2%
9. Cc1cc(=O)oc2c(C)c(OCC(=O)NC3CC(C)(C)NC(C)(C)C3)ccc12  -23.6%
10. CCC(C)NC(=O)c1c(N)n(CCCOC)c2nc3ccccc3nc12 (centres unmarked)  -23.4%
11. CCCCn1c(N)c(N(CCOC)C(=O)c2oc3ccc(OCC)cc3c2C)c(=O)[nH]c1=O  -22.6%
12. CCOC(=O)c1c(S(=O)(=O)N2CCC(C)CC2)c(C)n(C)c1C  -21.8%
13. CSCCC1NC(=O)N(CC(=O)N2N=C(c3ccc(Cl)cc3)CC2c2ccco2)C1=O (centres unmarked)  -19.4%
14. Cc1ccc(S(=O)(=O)NCCC(=O)OCC(=O)NCCc2ccccc2)cc1C  -19.3%
15. O=C(CSc1ccc(-c2ccccn2)nn1)N1CCCc2ccccc21  -18.9%
16. COc1ccc(C(=O)N/N=C(\C)CC(=O)Nc2cccc(C(F)(F)F)c2)cc1  -15.3%
17. COc1ccc(C2=NN(C(N)=S)C(c3ccccc3)C2)cc1 (centres unmarked)  -14.9%
18. Cc1nn(C)cc1S(=O)(=O)N1CCN(c2ccccc2F)CC1  -11%
19. COc1ccc(N(CC(=O)NCc2ccco2)C(=O)CNS(=O)(=O)c2ccc(Cl)cc2)cc1  -10.9%
20. Cc1nc(SC(C)C(=O)c2c(N)n(C)c(=O)n(C)c2=O)c2c(C)c(C)sc2n1 (centres unmarked)  -10.8%
21. CCSc1nnc(NC(=O)C2CC(=O)N(Cc3ccccc3)C2)s1 (centres unmarked)  -10.5%
22. Cc1nnn(C23C[C@@H]4C[C@@H](CC(C(=O)N5CCN(c6ccccc6)CC5)(C4)C2)C3)n1  -10.2%
23. O=S(=O)(NCC1CCN(S(=O)(=O)c2ccccc2)CC1)c1ccccc1  -9.78%
24. CC1CCN(C(=O)c2cccc(S(=O)(=O)N3CCCCC3)c2)CC1  -9.57%
25. Cn1c(SCc2ccccc2)nnc1-c1ccc2nonc2c1  -9.18%
26. Cc1cccc(C(=O)Nc2nnc(-c3ccc(C(C)(C)C)cc3)s2)c1  -8.1%
27. Cc1ccc(N=C(c2cccs2)N2CCOCC2)cc1  -7.14%
28. COc1ccccc1N1CCN(C(=O)c2cc(-c3ccc(Cl)c(Cl)c3)on2)CC1  -6.54%
29. CCN(CC)S(=O)(=O)c1ccc(-c2nnc(SCC(=O)Nc3nc(C)cs3)o2)cc1  -6.47%
30. COC(=O)c1sc2ncn(CC(=O)NCCc3ccc(OC)c(OC)c3)c(=O)c2c1C  -6.37%
31. CCN(CC)C(=O)COc1ccc2c(-c3ccccc3)cc(=O)oc2c1  -6.27%
32. Cc1nn(-c2ccccc2)c(C)c1/C=N/NC(=O)c1cnccn1  -5.73%
33. CN1CCN(C2OC(=O)c3ccccc32)CC1 (centres unmarked)  -5.6%
34. CC1CCCCC1NC(=O)CSc1nnc(CN2CCOCC2)n1C (centres unmarked)  -4.63%
35. CC(C(=O)NC(=O)NCc1ccccc1)N1C(=O)c2ccccc2C1=O (centres unmarked)  -3.41%
36. O=C1c2ccccc2C(=O)N1CCN1CCc2ccccc21  -3.28%
37. CC1(C)CC(=O)C=C(c2ccc(I)cc2)C1  -2.72%
38. COC(=O)Cc1ccc(NC(=O)C(c2ccccc2)c2ccccc2)cc1  -2.7%
39. CCOC(=O)c1nnn(-c2nonc2N)c1-c1ccc(Cl)cc1  -1.79%
40. CCc1sc(NC(C)=O)nc1-c1ccccc1  -1.16%
41. Cc1nc(SC(C)C(=O)NC2CCCCC2C)c2c(C)c(C)sc2n1 (centres unmarked)  -0.981%
42. N#C/C(=C\c1cn(CC(=O)N2CCCCC2)c2ccccc12)C(=O)NCc1ccc2c(c1)OCO2  -0.928%
43. COC(CNC(=O)C1CC(=O)N(CCc2ccccc2)C1)OC (centres unmarked)  -0.757%
44. Cc1cccc(CSC2=NCCN2C(=O)C2CC2)c1  -0.275%
45. Cc1ccc(C2CCN(C(=O)Nc3ccc(F)cc3)C2)cc1 (centres unmarked)  0.174%
46. O=C(CCC(=O)N1CCN(S(=O)(=O)c2ccc(Cl)cc2)CC1)Nc1ccc2ccccc2c1  1.35%
47. Cc1ccc(C(=O)NNC(=O)C2CCN(c3ncccn3)CC2)cc1  3.14%
48. CC(C)(c1ccccc1)c1ccc(OCCCN2CCNCC2)cc1.O=C(O)C(=O)O  3.19%
49. Cc1ccc(S(=O)(=O)N2CCN(C(=O)COC(=O)c3c(C)cc(C)cc3C)CC2)c(C)c1  3.33%
50. CCOC(=O)c1ccc(-c2c(-c3ccc4c(c3)OCO4)noc2C)cc1F  3.97%
51. CC(=O)Nc1ccccc1N(C)S(=O)(=O)c1ccc(C)cc1  4.52%
52. COc1cc(NC(=S)N2CCN(C(c3ccccc3)c3ccccc3)CC2)cc(OC)c1  5.1%
53. COCC1CCN(C(=O)CC2C(=O)NCCN2Cc2cccc(Oc3ccccc3)c2)CC1 (centres unmarked)  5.98%
54. COc1ccc(CNC(=O)COC(=O)Cc2ccc(Cl)cc2Cl)cc1  6.99%
55. CSc1cccc(NC(=S)N2CCC(c3ccccc3)C2)c1 (centres unmarked)  7.54%
56. COc1ccc(O)c(C(=O)CC(=O)c2ccccc2)c1  8%
57. CC1=CC(=O)CC2C1(C)CCC(C)C2(C)CCC(C)CC(=O)O (centres unmarked)  8.07%
58. Cc1cccc(CN2CCC(CNC(=O)CCNC(=O)Cn3ccc4ccccc4c3=O)CC2)c1  8.14%
59. C/C(=N\NC(=O)c1nnn(-c2nonc2N)c1CN(C)c1ccccc1)c1cccs1  9.23%
60. Cc1ccc(SCC(=O)NC2CCS(=O)(=O)C2)cc1 (centres unmarked)  10.1%
61. N#Cc1ccc(C(=O)Nc2cccc3ccccc23)c(F)c1  10.3%
62. Cc1ccccc1OCC(=O)N/N=C/c1ccc(Sc2nc3ccccc3s2)o1  10.4%
63. Cc1ccc(CNC(=O)C2CCCN2C(=O)Nc2ccc(C)cc2)cc1 (centres unmarked)  10.7%
64. CC1CCC(NC(=O)c2cnccn2)CC1 (centres unmarked)  11.6%
65. Cc1cc(C)cc(NC(=O)N2CCCCCCC2)c1  12.4%
66. O=C1CC(N2CCSCC2)C(=O)N1c1cccc(Cl)c1 (centres unmarked)  12.4%
67. COc1ccc(C(=O)/C=C2/C(=O)Nc3ccccc32)cc1  13.3%
68. CCOc1ccc(-c2nnn(CC(=O)N3CCCC3)n2)cc1OCC  13.8%
69. COc1cc2cc(CCCOC(=O)CCCC(=O)O)oc(=O)c2cc1OC  14%
70. Cc1ccc2nc3c(cc2c1)c(NC(=O)c1ccco1)nn3CC(C)C  14.2%
71. CN(Cc1cnn(C)c1)C(=O)CC1C(=O)NCCN1Cc1cccc(Oc2ccccc2)c1 (centres unmarked)  14.3%
72. Cc1ccc(-n2nc(C(=O)O)cc2-c2ccccc2)cc1  14.5%
73. O=C(NNC(=S)Nc1ccccc1)c1cccc(S(=O)(=O)N2CCOCC2)c1  15.3%
74. O=C(CNC(=O)c1cccs1)NCC(=O)OCC(=O)c1ccccc1  15.5%
75. O=C(OCn1nnc2ccccc2c1=O)C1=COCCO1  16.1%
76. Cc1ccc2nsnc2c1NC(=O)c1cncc(Br)c1  16.4%
77. COc1ccc(N2CCOCC2)c(NC(=O)COc2cccc(C)c2C)c1  17.1%
78. COC(=O)N1C(=O)[C@](c2ccccc2)(C2CCCC2)N1C(=O)OC  17.2%
79. COCCNC(=O)CN(C(=O)CCC(=O)Nc1ccccn1)c1ccc(OC)cc1  17.8%
80. COc1ccc(CCNS(=O)(=O)c2ccc3c(c2)NC(=O)C(C)S3)cc1OC (centres unmarked)  20.3%
81. CCc1nnc(NC(=O)c2ccc(Br)o2)s1  21.7%
82. C[C@@H]1NC(=O)[C@H](CCCN=C(N)N)NC(=O)c2cc([N+](=O)[O-])cc(I)c2OCC[C@@H](C(=O)NC(CC(=O)O)C(N)=O)NC1=O (some centres unmarked) (RA[hSer(Ph(2-I,4-NO2,6-CO))][ξD]-NH2; lactam N-3)  21.9%
83. Fc1cccc(-c2n[nH]c(=S)n2-c2ccccc2)c1  23%
84. COc1ccc(Br)cc1/C=N/N1CCN(Cc2ccccc2Cl)CC1  24.7%
85. COc1ccccc1NC(=O)Cn1cc(C(=O)C(=O)N2CCOCC2)c2ccccc21  25.4%
86. Cc1ccc(N2C(=O)C3C(c4ccccc4)(C2=O)C3(c2ccccc2)c2ccccc2)cc1 (centres unmarked)  28.3%
